Where a structure was tested more than once in an assay, its records may differ in their call.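 Compound tested at a single concentration for 48 hours in 96-well plates; a percent growth value below 10 was scored as active.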 Not every entry of the source has a single result; some have several. They are shown here; other results are not. An entry can have further records. This drug was run again and again over the years, at the concentration stated with the values; each value is one run. Signs of the kind (2×) say how often a value occurs here.
System: SK-OV-3 ovarian
Assay: NCI-60 one-dose screen, 48 h (100 = growth as untreated, 0 = no growth, -100 = all killed)

COc1cccc2c1C(=O)c1c(O)c3c(c(O)c1C2=O)C[C@@](O)(C(=O)CO)C[C@@H]3OC1CC(N)C(O)C(C)O1 (stereo not given in full)
growth (0.25 µM, runs of 2014): inactive: 59.1, 48.4, 38.1, 25.8, 33.5, 38.6, 35.7, 33.8, 32.2, 56.6 (2×), 22, 67, 26.6, 31, 44.6, 34.5, 48.2, 28.6, 66.4, 43.7, 44.4, 45.5, 48.7, 55, 38.2, 34.3, 44.8, 43.3, 41.6, 44.5, 61.6, 63.3, 56.3, 54.6, 51.2, 58.7, 57.9, 51.4 (2×), 54, 41.9, 42.3, 39.8, 46.6, 25.7, 38, 27.8, 32.7, 40.2, 45, 32, 37.7, 29.1, 30.4, 29.6 (2×), 26.1, 43.2, 38.8, 39.1, 39.9, 43.9, 36.9, 35.9, 38.9, 40.3, 27.7, 29.5, 35, 30.6, 28.3, 30, 29.4% | growth (0.25 µM, runs of 2015): inactive: 42.5 (2×), 43.3, 46, 44.6 (2×), 44.4, 41.6 (3×), 28.4, 38.6, 37, 33 (2×), 37.8, 49, 36.8, 25.8 (2×), 12.3, 28, 30.7, 16.6, 43.1, 31.9, 42.3, 42.6 (2×), 34.9 (2×), 41.3, 35.7, 40.3 (2×), 46.5, 29.1, 43 (2×), 42.8, 30.9, 44, 52.3, 38.7 (2×), 50.2, 30.3, 37.3 (2×), 44.5 (2×), 34.3, 50.1, 61.9, 56.9, 52.1, 57.9, 64.8, 48.9, 45.6, 43.2, 43.8, 59.3, 51.1, 51.4, 31.7, 33.4, 42.2, 48.1, 45.4, 36.5, 40.7, 44.8, 40.4, 38.3, 36.3, 40, 46.1% | growth (0.25 µM, runs of 2016): inactive: 51.7 (2×), 44.6, 42.7, 56.5, 54.6, 43.6 (2×), 46, 36.8 (2×), 37.6, 39.3, 48.5 (3×), 32.3, 47.9, 45.8, 44.4 (2×), 27.1, 38.7 (2×), 46.2, 34.2, 33.8, 36.3, 29.7 (2×), 41.4, 31.3, 35.3, 31.5, 34.5, 43.9, 44.1, 38.2, 44.7, 43.1 (2×), 48.6, 39.5, 52.5 (2×), 54, 44.9, 36.2, 47.4, 49.7 (2×), 57.6, 47.7, 56.9, 50.7, 61.5, 44.5, 58.3, 64, 49.1, 58.9, 77.9, 50, 71.9, 57.5, 63.9, 69, 77, 74.6, 51, 62.2, 58.5, 54.7, 59.6, 62.6, 59.9, 67.9, 37.8, 56.7, 46.9, 49.3, 48.8% | growth (0.25 µM, runs of 2017): inactive: 44 (2×), 45.8, 27.3, 45.6 (3×), 43.6, 45.5 (2×), 25.4, 38.4 (2×), 32.2 (2×), 33.7, 38.3 (2×), 29.6 (3×), 34.2, 44.9, 42, 38.5, 36.7, 32.1, 41.3, 11.6, 39.2 (2×), 35.9, 40.3, 41.9 (2×), 42.5, 39, 51.8, 45.3, 52.9, 35.6, 43.3 (2×), 45, 42.2, 47 (2×), 43 (2×), 39.4, 47.6, 79.7, 78.9, 81.4, 94, 44.8, 33.5, 37.8, 48.2, 36.2 (2×), 47.7, 40.6 (2×), 28.7, 34.9 (2×), 31.6, 37.4 (2×), 33.1, 35.7, 39.9 (2×), 46.1, 44.7, 50, 50.7, 61, 59.2, 46, 31.7, 67.9, 66.1, 39.6, 38.6% | growth (0.25 µM, runs of 2018): inactive: 34.3, 32.3 (2×), 35.8, 39.3 (2×), 38.6, 36.3, 44.3, 37, 47.4, 44.7, 50.6, 33.8, 57.6, 53.5, 47.6, 46.3, 39.2, 34.5 (2×), 45, 54.8, 57.4, 48.3, 33, 38.3, 36.5, 35.5, 31, 30.5, 28.2, 24.6, 19.7, 26.3, 30, 25.5, 23.3, 26.2, 18.7, 25.2 (2×), 26.5, 27.4, 39.6, 43.4, 21.7% | growth (0.25 µM, runs of 2019): inactive: 37.7, 28.3, 32.2, 29.5, 28.1, 35.1, 36.4, 38.6 (2×), 28.9, 48.4, 33.2, 41.8 (2×), 39.9, 44.3, 38.8 (4×), 47.8, 33.1, 41.4, 30.3, 34.4, 23, 25.4, 26.1, 27.7, 26.8, 40.8, 60.7, 31.8, 28.4, 21.7, 27.1% | growth (0.25 µM, runs of 2020): inactive: 11.6, 23.4, 23 (2×), 22.9, 52.5 (2×), 37.6 (2×), 44.9, 43.2, 29.6, 53.9, 38, 42, 48.1, 44.1, 54.9, 41.8, 47.2, 44.8, 48.7, 37.3, 41.9, 73.1% | growth (0.25 µM, runs of 2021): inactive: 58.6, 49, 50.6, 49.9, 30.6 (2×), 37.8, 53.1, 42.1, 38, 36.7, 32.1, 61.6, 48.9, 50.4, 34, 46.7, 41.3 (2×), 27.2, 28.7 (2×), 34.9, 40.9, 37.6, 19.2, 16.1, 27.1, 52.3, 49.3, 46.3, 44, 43.9, 35, 46.2, 24.8, 19.5, 27.8, 33, 15, 15.7, 30.7, 27.5, 25.6, 50.9, 45.4, 34.1% and active: 5.44% | growth (0.25 µM, runs of 2022): active: 3.39%, 5.76%, 9.23% and inactive: 51.7, 64.8, 10.5, 18.3, 15.4, 36.2, 29.5, 39.9, 48.2, 32.4, 24.9, 25.7, 29.2, 79, 95.1, 49, 84.1, 89.7, 35.2, 35.5, 39.1, 38.2, 30.6% | growth (25 µM, runs of 1991): active: -7.7, -42.2, 4.58, -22, -27.9, -11.2, 2.19, -18.9, -81.7, -8.87, 5.22, -20.8, -1.88, -17.9, -20.9% | growth (25 µM, runs of 1992): active: 0.457, -21.7, 4.94 (2×), -20.8, -13.7, -2.67, 0.807, 2.48, -11.7, -23.9 (3×), -9.81, -14.8, -1.22, 1.94, -17.8, -3.41, -20.9 (2×), -6.46, -14.3, -24, 0, -2.73, 1.5, 0.529, -11.4, 6.81, -11.8 (2×), -6.1, -1.73, -5.38, -31, -0.301, -10.3, -8.65, -21.5 (2×), -11.2, 0.341, -21.6, -13.5, -22.4 (2×), -14.7, -26.3, -17, 4.28, -5.04, 6.8, -12.6, -15.6, -15.9 (2×), 7.29, -27.5, -6.05, -33.1, -6.12, -7.12, -37, -38.7, -15.1, 1.83, -14.5, -17.9, 3.9, -8.38, 4.78, -0.0775, 2.54, -40.2, -23.4, -5.73, -25.9, -94.2, -10.2, -12.4, -18.4, -15.2 (3×), 4.22, -0.584, -10, -7.88, -28.9, 3.01, -11.3, 0.343, -2.25, -29.9, -27.6, -82.4, -17.4, 4.79, -16.8, -40.6, -16.4, 5.18, -9.67, -11.5, -7.97, -21.3, -17.7, -1.51% and inactive: 16.1, 13.2, 70.2, 19.3, 36.2, 12.3, 10, 10.1 (2×), 44, 10.5, 12.5% | growth (25 µM, runs of 1993): active: -11.4, 8.97, -21.9, -21.3, -20.6, 0, -18.8, -18, -1.43, 4.91, -6.9, -6.24, -21.7, 9.61, 0.279, -18.4, -15.6, -17.4, -2.23, 2.95, -35.4, -9.8, -32.1, 5.45, -13.9, -26.1, -29.5, -18.7, 5.27, -8.23, 1.11, -21 (2×), 1.02, -35, -2.9, 4.77, -2.97, -21.8, 6.11, -20.3% and inactive: 14.4%, 15.5%, 12.7% | growth (25 µM, runs of 1994): active: 5.64, -1.27, -11.3, -0.575, 0.093, 6.96, -0.957, 6.67, -4.34, -14.4, -25.9, -29.2, -3.09, -32.1, 5.95, -28.8, -6.19, -4.71, 9.4, -46.3, -29.1, 4.78, -36, 1.64, -3.9, -14.2, 3.01, -20.2, -11.6, -15, -29.6, -10.8% and inactive: 103%, 10.2%, 23.4% | growth (25 µM, runs of 1995): active: 3.85, 4.79, -29.4, -4.12, -3.68, -30.5, 8.54, -15.1, 9.44, -4.62, 1.91, -9.81, -22.8, -59.5, -9.28, -22.6, -20.8, -0.172, -10.6, -6.34% and inactive: 16.1, 16.3, 24.8, 21% | growth (25 µM, runs of 1996): active: 9.1, -21.8 (2×), -1.42, 1.81, 3.29, 8.86, -6.89, -1.76, -0.724, -4.58, -15.8, -0.447, -10.1, -23.3, 6.42, 2.72, 4.17, -8.03, -0.588, 4.83, 9.24, 5.5, -7.82, -18.4, 6.05, -6.88, 3.17, 0.132, -1.49, -32, -20.4, 4.68, 0.193, 7, -33.8% and inactive: 24.4, 26.2 (2×), 21.8, 93.1, 19, 14.8, 14.2, 64.9, 36.9, 13.3 (2×), 11.7, 12.8, 25.1, 18, 27.5, 11.4, 14.5%

— PubChem BioAssay (NCI)
